# Test results reported in the supplement of paper PMC3334620.
# Over roughly 33,000 sequences, “E-score (-0.5 to 0.5)” has its median near -0.054; the highest 2% begin near 0.39. This is one part of the list.
# Molecular target: Ylr278c (UniProt Q05854)
# Test: PBM E-score (8-mer binding enrichment) (E-score (-0.5 to 0.5)); higher = stronger / more preferred TF binding; most listed sequences are background and not binding sites
# Settings: protein concentration: 200 nM; construct: GST-DNA-binding domain
# Outline: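 For each ungapped eight-base word taken together with its reverse complement, the Universal PBM Analysis Suite assigned an E-score. Binding data came from GST-tagged yeast transcription factors, applied at about 100-200 nM, on universal all-10-mer Agilent arrays made double-stranded by primer extension. Fluorescent anti-GST marked bound protein, and scans were normalised with masliner.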
row,Sequence,PBM E-score
1,AGGTGCCA,-0.167
2,CTTGATGC,-0.0971
3,AGATGGAG,-0.124
4,ATAATGAT,-0.0458
5,GAAAAAAC,0.0368
6,CTTTCTCA,0.00043
7,ATACCACA,-0.162
8,ATACGGTA,-0.0192
9,GCGGTAGC,0.107
10,GAGTAGGC,-0.00886
11,CACCTGGC,-0.202
12,ACCCAACC,0.0171
13,TCGGCAGA,0.18
14,AAGAACTT,-0.0852
15,ACCTAACC,0.0688
16,CCAATCTC,0.077
17,CCAAATAA,-0.0594
18,GTATCTTA,0.0804
19,ATGGTATG,-0.0135
20,AAATCAAG,-0.0742
21,ACATGACA,-0.126
22,ACCGCTTC,-0.0102
23,CCAGGTGA,-0.398
24,AGGGGGAC,-0.309
25,AACGAGGT,-0.203

row,Sequence,PBM E-score
1,GTGTTTTA,-0.0233
2,CCTCCGGA,0.467
3,CCGAGCAG,0.139
4,AACACCAG,-0.291
5,ATTAACCA,-0.0281
6,TAGGGGGA,-0.102
7,AACTGGTA,-0.0501
8,TTTCAAAA,0.0139
9,TCAGCAGA,-0.295
10,AGTACACT,-0.249
11,GTTCCGAA,0.373
12,ACGAGGCT,-0.0944
13,CTAATGGA,-0.0575
14,CTATATTC,-0.0771
15,CCCCGATC,0.374
16,GGGCATGA,-0.206
17,CGGTCTCA,-0.12
18,GTCCCTCA,-0.293
19,AGTTAAAT,-0.0916
20,GTCAAGCA,-0.136
21,TAAGTGGA,-0.0663
22,AGTCGCTG,-0.25
23,ATTCAACC,-0.00677
24,ACAGTAAG,-0.13
25,ATCTCCAA,-0.0722

row,Sequence,PBM E-score
1,CCGGAAGC,0.369
2,TAACTGCA,-0.22
3,CTACAATA,0.0333
4,CGCTCGTA,0.0511
5,AAGTGAGA,-0.0754
6,GCTACAAC,0.0303
7,TAGCGGGA,0.0736
8,ATTCTCTC,-0.00407
9,ATCATCAA,-0.0898
10,TCGATGAA,-0.11
11,GCGGTGAC,0.0764
12,TAAGGCCA,-0.0843
13,CTACGCGC,0.0969
14,GCGATTGA,-0.208
15,ACAGTTCT,-0.0371
16,CGAGCAAG,-0.139
17,TCTGCGAA,-0.264
18,ACGTGTCA,-0.295
19,ACTCAGTA,0.0212
20,GACTCAGC,-0.135
21,CCACAAGC,-0.28
22,CAACGCCG,0.318
23,CCGTGTAA,0.143
24,CTACTCAA,-0.107
25,AAGGCACC,0.0287

row,Sequence,PBM E-score
1,GCGGGGCA,0.213
2,CAGCTTTC,-0.0673
3,AACAGAAG,-0.113
4,GCATCTAC,-0.0171
5,CTGCTCTC,-0.074
6,GACGACCC,-0.0612
7,CGCCGTAC,0.163
8,ACTCCGAG,0.478
9,ACCTCGGG,0.0925
10,GAGGGTAA,-0.0202
11,ACTCAATG,-0.0999
12,GTTTTATA,0.0498
13,ACGATTCT,-0.127
14,ACAAAACC,0.148
15,GACAGATC,0.0953
16,AACTCCCT,-0.072
17,CATTTATC,-0.156
18,TCAAATAA,-0.0503
19,ATTTCTCA,-0.0965
20,ATGGGTTC,-0.204
21,AGGGTATA,-0.00042
22,ACTGTAGA,-0.16
23,CGGGGTAC,0.313
24,CAGGTCGC,-0.101
25,CAGCGTAC,-0.0331

row,Sequence,PBM E-score
1,CTCCTTTC,0.00105
2,AAGCTTTA,-0.205
3,GACCCAAC,-0.0747
4,CCAAGGCA,-0.027
5,ACCGTGTC,0.102
6,ACACTTCC,0.0865
7,AATGTCGC,0.00556
8,GGGTCGAC,0.126
9,CTCCGGCA,0.469
10,GGTCGCAA,0.162
11,GCGGGGGA,0.177
12,ATCACTTG,-0.233
13,CCATCACC,-0.0277
14,ATATAGGA,-0.06
15,GCCTATCA,-0.183
16,ATGTGATC,-0.126
17,CGTATAAA,0.182
18,CCTAAAGA,-0.163
19,GTAATCGA,-0.102
20,AGTGGCTA,-0.259
21,ACGAACAC,-0.0143
22,TGGAAACA,-0.165
23,GAGATTCA,0.027
24,AGGCCTTA,-0.233
25,TATTATCA,-0.0793

row,Sequence,PBM E-score
1,CAATGACG,-0.136
2,ATGTAAGC,0.0127
3,CATGCTTA,-0.0818
4,TCTAATCA,0.0217
5,GGATTTTA,0.283
6,CTACGTAG,-0.0861
7,AAGCGTCT,-0.176
8,AAATCCTG,-0.102
9,CACCGTAC,-0.0981
10,ACTATCAA,-0.0259
11,CCAGCCGA,-0.0508
12,CGGAACTC,0.409
13,ACAAGCGG,0.201
14,AATAGACC,-0.0149
15,GATGTCAC,0.00498
16,ACCGTAAT,0.0827
17,ATGAGAAC,-0.0284
18,ATCATGAC,-0.225
19,AAGATCTT,0.0756
20,CGGCGTCA,0.191
21,CTTTTTAA,-0.176
22,CTCTGCAG,-0.192
23,CCCTTGAC,-0.0913
24,CAACTATG,-0.0641
25,CGATTTCA,0.0505

row,Sequence,PBM E-score
1,CAGGACTA,-0.0233
2,CTCGTTTA,-0.0777
3,CGTTTCCA,-0.0556
4,AAGCGGAG,0.355
5,CTCCGTAA,0.41
6,CGCGACAG,-0.0451
7,CGCACAGA,-0.0706
8,CCCATCTC,0.0175
9,AATGTACC,-0.167
10,TGAACTAA,-0.162
11,CTCGAGAG,-0.176
12,GGATAACC,0.18
13,AAGTTATC,-0.0551
14,CCTACTCA,0.0149
15,CGTTTCCC,0.225
16,GTAGGAGA,-0.0599
17,AAAGACAG,0.0173
18,CCCAGTAG,-0.019
19,GGCATAAA,-0.0245
20,GACCTGAC,-0.198
21,ACAGTGAA,-0.128
22,AGAGGGCG,0.076
